Assay results reported in PubChem BioAssay AID686979 (National Center for Advancing Translational Sciences (NCATS), 2013).
Among all 420,000 compounds or so, about 50,000 (12%) were called active. Another 26% or so got no clear call; they are omitted. Calls follow the shape of the dose curve; as a rule, active = well fitted inhibition curve with a large enough effect; inconclusive = small, poorly fitted or top-dose-only effect; inactive = flat fitted curve, though single readings scatter. Only a part is listed here, and it is no random draw. A structure can be active in one record and inactive in another.

experiment: qHTS for Inhibitors of human tyrosyl-DNA phosphodiesterase 1 (TDP1): qHTS in cells in presence of CPT; conditions: chicken DT40 Tdp1-/-;hTDP1 cells + 20 nM CPT, ATP luminescence, 48 h; series mostly up to 46.2 µM; activity change, negative = growth inhibition: at the top concentration; also: nearly all actives have a fitted effect of over 55% in size
Method in brief: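 Chicken DT40 Tdp1-/- cells complemented with human TDP1, 400 cells/well, exposed to compounds plus 20 nM camptothecin for at least 48 h at 37 C; viability read as ATP content by CellTiter-Glo luminescence.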
% is scaled to controls: 0 for no effect and ±100 for the full control effect; potency is read from the fitted curve at half-maximal effect.

Structure (SMILES)	activity change, negative = growth inhibition	Potency
COc1ccc(-c2cc(=O)c3c(O)cc(O[C@@H]4OC(COC5OC(C)C(O)C(O)[C@@H]5O)C(O)C(O)C4O)cc3o2)cc1 (stereo partly drawn)	inactive: 4.99%	–
COC(=O)c1ccc(CN2[C@H](C(=O)OC)C[C@@]3(O)[C@H](O)[C@H](O)[C@H](O)C[C@@H]23)cc1	inactive: -14.2%	–
N#Cc1ccc(CN2CC3(CCN(C(=O)c4cc(C(F)(F)F)cc(C(F)(F)F)c4)CC3)C2)cc1	–	active: 20.6 µM
COc1ccc(CNC(=O)CCCn2c(=O)c3cccn3c3cccnc32)cc1	inactive: -27.3%	–
C[C@@H]1CN([C@H](C)CO)C(=O)CCCn2nncc2CO[C@H]1CN(C)S(=O)(=O)c1ccc2c(c1)OCCCO2	inactive: -4.64%	–
COC(=O)C[C@H]1c2cc(C(F)(F)F)ccc2S(=O)(=O)N1Cc1ccc(OC)cc1	inactive: -21.6%	–
COC(=O)C1=COC(OC2OC(CO)C(O)C(O)C2O)C2C1C=CC2(O)CO (stereo not drawn)	inactive: 3.93%	–
CCC(C)OC(=O)C1=C(C)OC23OC(N)=C(C#N)C12C(=O)c1ccccc13 (stereo not drawn)	inactive: -14.4%	–
CCOCCCNC(=O)C(=O)NCCCOCC	inactive: 37.7%	–
CCCCCC(O)c1cccc(OCc2ccc3ccccc3n2)c1 (stereo not drawn)	inactive: -10.5% [at 4.12 µM]	–
COc1ccc2[nH]c(-c3ccccc3)c(CCNC(C)=O)c2c1	inactive: 0.879%	–
Cc1ccccc1CO/N=C/c1[nH]ncc1Br	inactive: 15.9%	–
COc1cc(NC(=O)Cn2c(C)cc3ccccc3c2=O)cc(OC)c1OC	inactive: -11.9%	–
NC(=O)OCC(COC(N)=O)c1ccccc1	–	inactive
CCCCn1nc(NC(=O)c2cccs2)c2cc3ccccc3nc21	–	active: 20.6 µM
COc1cc(NC(=O)c2nccn2C)cc(C(=O)Nc2cccc(C(F)(F)F)c2)c1	inactive: -67.1%	–
Cc1ccccc1C(C)(O)c1cnc(C)n1Cc1ccccc1 (stereo not drawn)	–	active: 20.6 µM
CCOC(=O)C[C@H]1c2cc(F)ccc2S(=O)(=O)N1c1ccccc1	inactive: 5.64%	–
O=c1[nH]c2cc(C(F)(F)F)ccc2n1-c1cc(C(F)(F)F)ccc1O	inactive: -24.6%	–
O=c1cc(-c2ccccc2)oc2cc(O)c(O)c(O)c12	inactive: -107%	–
COc1cc2nc(N3CCN(C(=O)[C@@H]4CCCO4)CC3)nc(N)c2cc1OC	inactive: 10.6%	–

Structure (SMILES)	activity change, negative = growth inhibition	Potency
O=C(Cc1ccccc1)c1nnc(-c2ccccc2)o1	inactive: 12.2%	–
CCCCc1cc(=O)oc2cc(OCC(=O)NCCN3CCOCC3)c(Cl)cc12	–	active: 13 µM
O=c1cc(N2CCN(c3ccc(F)cc3)CC2)[nH]c(=O)n1-c1cccc(Br)c1	–	active: 10.3 µM
COc1ccccc1CNC(=O)c1cnn(-c2ccc(F)cc2F)c1C1CCN(C(=O)OC(C)(C)C)CC1	–	active: 16.4 µM
Cn1c(=O)cc(OCC(=O)N2CCN(c3ccccc3F)CC2)c2ccccc21	inactive: -0.224%	–
CC(C)OC(=O)/C(=C/c1cccnc1)NC(=O)c1ccccc1	inactive: 30.5%	–
CCC(C(=O)OCC(=O)Nc1cc(C)ccc1OC)c1ccccc1 (stereo not drawn)	inactive: 33.2%	–
COc1ccc(C)cc1NC(=O)c1noc2c1CSc1ccccc1-2	inactive: 31.2%	–
CC(C)OC(=O)C(C)(C)Oc1ccc(C(=O)c2ccc(Cl)cc2)cc1	–	inactive
NC(=O)CC[C@H](N)C(=O)O	inactive: -3.97%	–
O=C1c2ccccc2C(=O)C1c1ccc(Br)cc1	–	inactive
CCOC(=O)[C@@H]1[C@H]2COc3ccc(Br)cc3[C@@H]2N2C(=O)N(c3ccccc3)C(=O)[C@]12C	inactive: -4.71%	–
COc1ccc(C2CC(=O)c3cc(-c4nc(-c5cccc([N+](=O)[O-])c5)cs4)c(=O)n(-c4ccccc4)c3C2)cc1 (stereo not drawn)	inactive: 15.8%	–
COc1cc(NC(=O)CC2C(=O)N(c3ccccc3)C(=O)N2Cc2ccc(F)cc2)cc(OC)c1 (stereo not drawn)	–	active: 13 µM
CCOC(=O)[C@H]1CCC[C@@H](NS(=O)(=O)c2ccc(NC(C)=O)cc2)C1	inactive: -23.6%	–
COc1cc2c(cc1OC)C(c1cccc(Cl)c1)CC(=O)N2 (stereo not drawn)	inactive: 5.98%	–
CCOc1ccc(C2CC(=O)c3c([nH]c(C(=O)OCCOc4ccccc4)c3C)C2)cc1 (stereo not drawn)	–	active: 13 µM
O=C(O)CCN1C(=O)C2C3c4ccccc4C(c4ccccc43)[C@@H]2C1=O (stereo partly drawn)	inactive: -5.74%	–
CC(=O)OC[C@@]1(O)C[C@]23CCC4c5ccoc5CC[C@@]4(C)C2CCC1C3 (stereo partly drawn)	inactive: -0.194%	–
Cn1nccc1C(=O)N/N=C/c1c(O)ccc2ccccc12	–	active: 4.61 µM
CCOC(=O)CCSc1n[nH]c(=S)s1	inactive: 30.3%	–

Structure (SMILES)	activity change, negative = growth inhibition	Potency
CCOc1ccc(NC(=O)c2ccc3snnc3c2)cc1	inactive: -29.8%	–
CCOc1ccc2nc(S(N)(=O)=O)sc2c1	inactive: -4.04%	–
Cc1cc(C)nc(N/N=C/c2cn[nH]c2-c2ccccc2)n1	inactive: 17.7%	–
O=C1OC(Cc2ccccn2)C(O)=C1C1=NCCCN1 (stereo not drawn)	inactive: 33.3%	–
CCOC(=O)C1=C(CN2CCN(c3ccc(Cl)cc3)CC2)NC(=O)NC1c1ccc(OC)cc1 (stereo not drawn)	–	active: 20.6 µM
NC(Cc1cc(I)c(Oc2ccc(O)c(I)c2)c(I)c1)C(=O)O (stereo not drawn)	inactive: 18.1%	–
Cc1c(C)n(Cc2ccccc2)c2ccc(C(=O)NCc3ccccc3F)cc12	–	active: 18.4 µM
COc1ccc(N2C(=O)CSC2c2ccccc2)cc1 (stereo not drawn)	inactive: 32.7%	–
CCCCN(Cc1ccccc1)S(=O)(=O)c1ccc2c(c1)CC(C)N2C(=O)CC (stereo not drawn)	–	active: 23.1 µM
Cc1ccc(OCC(=O)c2cc(C)n(-c3cc(C)on3)c2C)c([N+](=O)[O-])n1	–	active: 10.3 µM
CC[C@H](C)/C=C(C)/C=C/C1=CC2=CC(=O)[C@]3(C)OC(=O)[C@@H](C(C)=O)[C@@H]3C2=CO1	–	active: 2.06 µM
OC(COCC1COc2ccccc2O1)CN1CCN(c2ccccn2)CC1 (stereo not drawn)	inactive: -25%	–
NC(=O)CN1CCN(C(=O)NC2CCCCC2)CC1	inactive: 52.3%	–
Cc1cc(NC(=O)C2CCN(S(=O)(=O)c3c(C)noc3C)CC2)ccc1Br	inactive: -29.2%	–
CC(=O)C[C@H]1c2ccccc2S(=O)(=O)N1C1CCCCC1	inactive: -16.8%	–
CC(=O)CC(=O)Nc1ccc(Cl)cn1	inactive: 35.6%	–
CCOc1ccc(CN2CCNC(=O)C2CC(=O)O)cc1 (stereo not drawn)	inactive: 30.6%	–
CCc1ccccc1N(C)C(=O)C1CCCN(c2ncnc3c2nc2n3CCCCC2)C1 (stereo not drawn)	–	active: 18.4 µM
CC(C)(C)c1cc(NC(=O)C2(C)CCN2C(=O)C2(c3ccccc3)CCCC2)no1 (stereo not drawn)	–	active: 14.6 µM
CCOc1ccc(N2CC(C(=O)N3CC(C)OC(C)C3)CC2=O)cc1 (stereo not drawn)	inactive: 37.1%	–
CCOC(=O)C1=C(CSc2nc3ccccc3s2)NC(=O)NC1c1ccc(OC)cc1 (stereo not drawn)	–	active: 20.6 µM
